Data on 86 sequences can be found in the supplement of paper PMC3334620.

Over roughly 33,000 sequences, “E-score (-0.5 to 0.5)” has its median near -0.013; the highest 2% begin near 0.3. The list shows a part of the results.

The test has as its target T1, Msn1 (UniProt P22148).
T1 sequence: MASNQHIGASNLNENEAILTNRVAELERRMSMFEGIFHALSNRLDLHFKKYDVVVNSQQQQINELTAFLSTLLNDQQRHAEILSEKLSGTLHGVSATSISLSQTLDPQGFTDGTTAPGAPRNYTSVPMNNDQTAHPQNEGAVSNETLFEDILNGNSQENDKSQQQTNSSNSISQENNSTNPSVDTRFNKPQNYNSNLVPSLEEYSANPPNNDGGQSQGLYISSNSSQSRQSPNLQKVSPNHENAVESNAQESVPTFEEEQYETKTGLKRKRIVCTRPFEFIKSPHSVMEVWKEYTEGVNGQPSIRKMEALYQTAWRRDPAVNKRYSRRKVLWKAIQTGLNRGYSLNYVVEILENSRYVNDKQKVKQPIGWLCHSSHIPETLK
Kind of test: PBM E-score (8-mer binding enrichment) (E-score (-0.5 to 0.5)); higher = stronger / more preferred TF binding; most listed sequences are background and not binding sites. As to conditions: protein concentration: 200 nM; construct: GST-full length. A digest of the protocol: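 Each ungapped eight-base word and its reverse complement, pooled, received an E-score from the Universal PBM Analysis Suite. Underlying scans, normalised with masliner, recorded fluorescent anti-GST bound to GST-tagged yeast transcription factors. These were applied at about 100-200 nM to universal all-10-mer Agilent arrays double-stranded by primer extension.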
For the sequence AGTTCCAT, the “PBM E-score” value was 0.0691. Under GAGTACCA stands 0.0166; under CCTGCTAG, -0.0964. Under AAGGATGC stands -0.132. Under AGGCATTC stands -0.284; under ACATCTCG, 0.137. As to ATGCGGTC, the “PBM E-score” value came to 0.116.

Turning to AATGAGTG, the “PBM E-score” value is -0.0537. Under CTGATCGC stands -0.104; under CCATGCGA, 0.108. Take ATCACTAA: the “PBM E-score” value was -0.0338. Under CCCGCCCC stands -0.12; under AAGAATCC, -0.0215; under ACTATGCA, 0.0563.

In the case of TAGCTTAA, the “PBM E-score” value was found to be 0.0136.

GAAGCGCC: the “PBM E-score” value came to 0.0782. TAATATAA: the “PBM E-score” value is 0.268. Under GACGCAAA stands -0.0204.

As to GCTGACTA, the “PBM E-score” value was -0.233.

Take TAATGCGA: the “PBM E-score” value was found to be 0.164. Under CTTTCACC stands 0.0806. Consider CGCAGCTA, for which the “PBM E-score” value was -0.132. The figure for ATATACCG is 0.139; for AGTACACC it is 0.162.

With ACAGCTTG, the “PBM E-score” value was determined as 0.00925. The figure for ACTCCACT is -0.098. Under CTGCCAGA stands -0.203. As for ACCGTCCG, the “PBM E-score” value is -0.0299. The figure for CCACTCTA is -0.0584; for GACACTCA it is -0.0259. As to AATTTTCA, the “PBM E-score” value amounted to 0.012. Under CTGCTGGC stands -0.19.

Take AAATATTT: the “PBM E-score” value is 0.292. The figure for CACACGCA is -0.14; for CACACCGG it is -0.082.

GGTAACAC: the “PBM E-score” value worked out at 0.0375. Regarding CAGTGGTC, the “PBM E-score” value was -0.138. Under CCGGTGCG stands -0.00399; under GGTCCTGA, 0.0385; under CAGTCACG, -0.198. The figure for CCTTATAC is 0.0669; for CCTGGTAG it is -0.248; for CAAACCAG it is -0.056. For CCCGAACC, the “PBM E-score” value is -0.227. The figure for CCTAAGCC is -0.242. Under AGTCTCTC stands -0.121; under GTCTCGAA, 0.156; under AAACAATA, 0.237. The figure for ATTGGCAG is -0.152. Consider TATCTTGA, for which the “PBM E-score” value was -0.103. Under CAGCAAAG stands 0.118.

Take ACGCTGCC: the “PBM E-score” value is -0.175. The figure for CAAACACG is 0.0735; for GACTAGAC it is -0.0357; for GCCGTTCC it is -0.109.

Regarding TGCGCTAA, the “PBM E-score” value is 0.111. Under ACGTGCAA stands 0.0425. Under GTTACGAA stands 0.0416; under GAAACCAC, -0.155.

CAGCCCGC: the “PBM E-score” value was -0.259.

On to AAATTCTT, for which the “PBM E-score” value came out at 0.0507. Under TACAAGGA stands 0.197. The figure for GGCTCCTA is -0.319; for CTTCACCC it is 0.103; for AATCCGGT it is 0.169. Under CAGGGGAC stands -0.125; under CGATGGCG, -0.102.

In the case of TATCTGCA, the “PBM E-score” value is -0.052. The figure for ACCTCCCG is -0.299; for CTTGAACA it is -0.0163; for CAAGAGCC it is 0.0197. The figure for AAGCCGGA is 0.131; for AACGTCGC it is 0.096. The figure for CTGTAAGC is 0.0563; for CAAGATCG it is 0.0775. Regarding CTGTGGAA, the “PBM E-score” value is -0.151. For the sequence GGTGCATA, the “PBM E-score” value was -0.167. The figure for CACTGGGC is -0.155. Under GCTAATCC stands -0.0986. The figure for ATGTAATA is 0.0505; for GCGGACCA it is 0.0483. Consider TTGAGAAA, for which the “PBM E-score” value was determined as 0.083. The figure for GAGTCACA is -0.0411. Under ACACCGGT stands 0.0772; under ACATGGAA, 0.216. Under CCACAACA stands 0.0856.
